According to PMC12041881, “Tailored phenyl ureas eradicate drug-resistant Mycobacterium tuberculosis by targeting mycolic acid cell wall assembly” (Chemical Science, 2025):
Like-named read-outs stand apart in the source and are kept apart here.

How the values were obtained:
Type in all cases: binding
[1] = tested on: probe-bound proteins in M. tuberculosis H37Ra cells; details: 5µM vs noUV
[2] = target: probe-bound proteins in M. tuberculosis H37Ra cells (Mycobacterium tuberculosis, UniProt P9WP15); details: protein ddn (P9WP15, Deazaflavin-dependent nitroreductase); 5µM vs noUV
UniProt P9WP15, sequence (P9WP15 whole entry): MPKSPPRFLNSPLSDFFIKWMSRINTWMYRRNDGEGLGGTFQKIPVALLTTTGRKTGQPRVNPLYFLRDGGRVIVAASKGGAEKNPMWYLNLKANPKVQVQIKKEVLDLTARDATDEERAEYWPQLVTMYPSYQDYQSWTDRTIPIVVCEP

[3] = target: probe-bound proteins in M. tuberculosis H37Ra cells (Mycobacterium tuberculosis, UniProt P9WP63); details: protein crcB1 (P9WP63, Putative fluoride ion transporter CrcB 1); 5µM vs noUV
UniProt P9WP63, sequence (P9WP63 whole entry): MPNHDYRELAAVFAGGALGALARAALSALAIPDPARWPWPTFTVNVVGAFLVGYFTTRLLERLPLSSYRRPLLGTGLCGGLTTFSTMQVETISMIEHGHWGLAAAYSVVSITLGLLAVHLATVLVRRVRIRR

[4] = target: probe-bound proteins in M. tuberculosis H37Ra cells (Mycobacterium tuberculosis, UniProt P9WJY3); details: protein Rv1410c (P9WJY3, Probable triacylglyceride transporter Rv1410c); 5µM vs noUV
UniProt P9WJY3, sequence (P9WJY3 whole entry): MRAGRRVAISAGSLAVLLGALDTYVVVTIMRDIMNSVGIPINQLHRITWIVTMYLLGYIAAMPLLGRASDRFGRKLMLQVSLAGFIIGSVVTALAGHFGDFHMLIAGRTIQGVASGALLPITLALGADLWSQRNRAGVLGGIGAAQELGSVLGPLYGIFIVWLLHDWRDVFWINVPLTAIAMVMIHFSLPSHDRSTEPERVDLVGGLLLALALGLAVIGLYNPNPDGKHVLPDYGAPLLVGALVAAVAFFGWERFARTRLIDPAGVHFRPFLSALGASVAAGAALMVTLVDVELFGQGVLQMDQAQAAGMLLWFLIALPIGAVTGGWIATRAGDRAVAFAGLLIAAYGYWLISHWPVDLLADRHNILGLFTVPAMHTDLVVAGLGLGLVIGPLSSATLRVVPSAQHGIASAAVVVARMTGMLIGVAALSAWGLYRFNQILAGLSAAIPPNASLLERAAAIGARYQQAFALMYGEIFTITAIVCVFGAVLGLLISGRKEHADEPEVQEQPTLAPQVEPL

[5] = target: probe-bound proteins in M. tuberculosis H37Ra cells (Mycobacterium tuberculosis, UniProt P9WHR1); details: protein rip3 (P9WHR1, Putative zinc metalloprotease Rip3); 5µM vs noUV
UniProt P9WHR1, sequence (P9WHR1 whole entry): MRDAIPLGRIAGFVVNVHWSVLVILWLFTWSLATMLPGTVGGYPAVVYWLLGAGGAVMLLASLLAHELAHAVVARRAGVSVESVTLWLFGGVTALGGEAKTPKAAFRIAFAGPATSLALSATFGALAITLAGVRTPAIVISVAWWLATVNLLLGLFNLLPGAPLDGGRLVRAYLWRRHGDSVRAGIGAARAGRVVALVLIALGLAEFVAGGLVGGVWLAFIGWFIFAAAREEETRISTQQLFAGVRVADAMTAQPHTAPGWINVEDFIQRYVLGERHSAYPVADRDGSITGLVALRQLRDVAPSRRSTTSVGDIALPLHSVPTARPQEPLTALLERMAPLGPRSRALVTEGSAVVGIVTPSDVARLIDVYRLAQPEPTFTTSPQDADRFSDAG

[6] = target: probe-bound proteins in M. tuberculosis H37Ra cells (Mycobacterium tuberculosis, UniProt P9WG19); details: protein ftsX (P9WG19, Cell division protein FtsX); 5µM vs noUV
UniProt P9WG19, sequence (P9WG19 whole entry): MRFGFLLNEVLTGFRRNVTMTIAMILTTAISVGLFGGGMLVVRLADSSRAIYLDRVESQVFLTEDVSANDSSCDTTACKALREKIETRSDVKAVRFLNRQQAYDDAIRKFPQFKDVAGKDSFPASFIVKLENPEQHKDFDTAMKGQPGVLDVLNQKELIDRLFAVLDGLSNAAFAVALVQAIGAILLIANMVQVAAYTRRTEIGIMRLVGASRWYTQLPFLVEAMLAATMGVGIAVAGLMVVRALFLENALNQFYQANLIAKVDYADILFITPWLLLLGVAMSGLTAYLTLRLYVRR

[7] = target: probe-bound proteins in M. tuberculosis H37Ra cells (Mycobacterium tuberculosis, UniProt P9WLD7); details: protein Rv2300c (P9WLD7, Probable metallo-hydrolase Rv2300c); 5µM vs noUV
[8] = target: probe-bound proteins in M. tuberculosis H37Ra cells (Mycobacterium tuberculosis, UniProt P9WMS9)
[9] = target: probe-bound proteins in M. tuberculosis H37Ra cells (Mycobacterium tuberculosis, UniProt P9WQN3); details: protein ftsH (P9WQN3, ATP-dependent zinc metalloprotease FtsH); 5µM vs noUV
UniProt P9WQN3, sequence (P9WQN3 whole entry): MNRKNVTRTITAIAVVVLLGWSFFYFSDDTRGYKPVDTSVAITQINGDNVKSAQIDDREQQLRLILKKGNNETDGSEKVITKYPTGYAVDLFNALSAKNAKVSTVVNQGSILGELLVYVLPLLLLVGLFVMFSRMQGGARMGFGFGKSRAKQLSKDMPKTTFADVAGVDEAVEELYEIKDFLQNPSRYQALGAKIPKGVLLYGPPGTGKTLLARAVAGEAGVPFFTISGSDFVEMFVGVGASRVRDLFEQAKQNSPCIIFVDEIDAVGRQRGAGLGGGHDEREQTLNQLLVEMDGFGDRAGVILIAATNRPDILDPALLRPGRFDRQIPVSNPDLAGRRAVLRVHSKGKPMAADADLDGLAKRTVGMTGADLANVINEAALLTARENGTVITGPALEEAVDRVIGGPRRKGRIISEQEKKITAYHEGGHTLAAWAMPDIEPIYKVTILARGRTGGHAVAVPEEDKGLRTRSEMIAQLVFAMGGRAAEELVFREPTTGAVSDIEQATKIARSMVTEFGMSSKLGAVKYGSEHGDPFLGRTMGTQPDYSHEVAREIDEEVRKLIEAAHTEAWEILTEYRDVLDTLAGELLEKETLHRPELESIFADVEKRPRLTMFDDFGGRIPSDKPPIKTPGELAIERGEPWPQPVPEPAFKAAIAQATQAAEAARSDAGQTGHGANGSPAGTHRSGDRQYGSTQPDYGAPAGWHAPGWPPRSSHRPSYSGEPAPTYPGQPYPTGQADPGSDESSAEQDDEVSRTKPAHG

[10] = target: probe-bound proteins in M. tuberculosis H37Ra cells (Mycobacterium tuberculosis, UniProt P9WP07); details: protein Rv2637 (P9WP07, Uncharacterized membrane protein Rv2637); 5µM vs noUV
UniProt P9WP07, sequence (P9WP07 whole entry): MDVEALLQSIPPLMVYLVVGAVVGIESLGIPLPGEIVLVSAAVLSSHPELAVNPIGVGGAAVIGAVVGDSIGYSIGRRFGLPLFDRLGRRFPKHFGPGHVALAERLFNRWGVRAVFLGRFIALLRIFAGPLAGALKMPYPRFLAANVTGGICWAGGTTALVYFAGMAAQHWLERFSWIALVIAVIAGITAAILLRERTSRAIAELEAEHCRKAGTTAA

[11] = target: probe-bound proteins in M. tuberculosis H37Ra cells (Mycobacterium tuberculosis, UniProt P9WQH7); details: protein accD5 (P9WQH7, Biotin-dependent acetyl-/propionyl-coenzyme A carboxylase beta5 subunit); 5µM vs noUV
UniProt P9WQH7, sequence (P9WQH7 whole entry): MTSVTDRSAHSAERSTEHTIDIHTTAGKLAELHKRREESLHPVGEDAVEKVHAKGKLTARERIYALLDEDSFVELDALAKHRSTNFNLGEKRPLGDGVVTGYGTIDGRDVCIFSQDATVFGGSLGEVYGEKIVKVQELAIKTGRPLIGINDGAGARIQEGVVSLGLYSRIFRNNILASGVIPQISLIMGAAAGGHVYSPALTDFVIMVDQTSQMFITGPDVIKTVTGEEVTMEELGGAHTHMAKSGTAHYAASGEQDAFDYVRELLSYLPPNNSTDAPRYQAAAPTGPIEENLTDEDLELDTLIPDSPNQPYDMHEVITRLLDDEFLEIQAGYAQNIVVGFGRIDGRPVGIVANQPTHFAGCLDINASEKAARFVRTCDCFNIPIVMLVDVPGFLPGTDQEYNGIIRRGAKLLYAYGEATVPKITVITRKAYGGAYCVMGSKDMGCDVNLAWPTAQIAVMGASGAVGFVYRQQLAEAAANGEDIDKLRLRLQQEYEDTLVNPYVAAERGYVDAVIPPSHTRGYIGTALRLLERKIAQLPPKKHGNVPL

[12] = target: probe-bound proteins in M. tuberculosis H37Ra cells (Mycobacterium tuberculosis, UniProt O06139); details: protein cydB (O06139); 5µM vs noUV
[13] = target: probe-bound proteins in M. tuberculosis H37Ra cells (Mycobacterium tuberculosis, UniProt P9WM71); details: protein Rv0090 (P9WM71, Uncharacterized protein Rv0090); 5µM vs noUV
UniProt P9WM71, sequence (P9WM71 whole entry): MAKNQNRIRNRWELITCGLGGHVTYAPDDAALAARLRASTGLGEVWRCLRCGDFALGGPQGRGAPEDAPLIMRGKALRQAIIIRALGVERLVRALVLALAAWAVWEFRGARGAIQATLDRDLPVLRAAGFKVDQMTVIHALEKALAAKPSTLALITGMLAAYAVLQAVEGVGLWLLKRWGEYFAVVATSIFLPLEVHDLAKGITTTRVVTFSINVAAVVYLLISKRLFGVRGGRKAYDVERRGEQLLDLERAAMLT

[14] = target: probe-bound proteins in M. tuberculosis H37Ra cells (Mycobacterium tuberculosis, UniProt P9WM93); details: protein Rv0034 (P9WM93, Uncharacterized protein Rv0034); 5µM vs noUV
UniProt P9WM93, sequence (P9WM93 whole entry): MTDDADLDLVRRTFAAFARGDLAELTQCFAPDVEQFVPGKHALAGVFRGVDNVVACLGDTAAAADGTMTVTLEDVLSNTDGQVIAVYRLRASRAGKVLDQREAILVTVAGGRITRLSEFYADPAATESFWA

[15] = target: probe-bound proteins in M. tuberculosis H37Ra cells (Mycobacterium tuberculosis, UniProt P9WKL9); details: protein Rv0968 (P9WKL9, Uncharacterized protein Rv0968); 5µM vs noUV
UniProt P9WKL9, sequence (P9WKL9 whole entry): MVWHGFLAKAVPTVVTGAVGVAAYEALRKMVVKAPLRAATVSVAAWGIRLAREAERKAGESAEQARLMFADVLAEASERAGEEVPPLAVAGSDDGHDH

[16] = target: probe-bound proteins in M. tuberculosis H37Ra cells (Mycobacterium tuberculosis, UniProt P9WM75); details: protein Rv0085 (P9WM75, Uncharacterized protein Rv0085); 5µM vs noUV
UniProt P9WM75, sequence (P9WM75 whole entry): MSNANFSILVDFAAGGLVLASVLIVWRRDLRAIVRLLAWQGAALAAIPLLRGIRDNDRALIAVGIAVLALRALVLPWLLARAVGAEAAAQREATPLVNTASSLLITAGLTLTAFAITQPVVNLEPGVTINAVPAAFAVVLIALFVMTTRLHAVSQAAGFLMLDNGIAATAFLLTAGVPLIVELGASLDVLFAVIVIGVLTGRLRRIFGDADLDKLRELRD

[17] = target: probe-bound proteins in M. tuberculosis H37Ra cells (Mycobacterium tuberculosis, UniProt O53896); details: protein pepD (O53896); 5µM vs noUV
UniProt O53896, sequence (O53896 whole entry): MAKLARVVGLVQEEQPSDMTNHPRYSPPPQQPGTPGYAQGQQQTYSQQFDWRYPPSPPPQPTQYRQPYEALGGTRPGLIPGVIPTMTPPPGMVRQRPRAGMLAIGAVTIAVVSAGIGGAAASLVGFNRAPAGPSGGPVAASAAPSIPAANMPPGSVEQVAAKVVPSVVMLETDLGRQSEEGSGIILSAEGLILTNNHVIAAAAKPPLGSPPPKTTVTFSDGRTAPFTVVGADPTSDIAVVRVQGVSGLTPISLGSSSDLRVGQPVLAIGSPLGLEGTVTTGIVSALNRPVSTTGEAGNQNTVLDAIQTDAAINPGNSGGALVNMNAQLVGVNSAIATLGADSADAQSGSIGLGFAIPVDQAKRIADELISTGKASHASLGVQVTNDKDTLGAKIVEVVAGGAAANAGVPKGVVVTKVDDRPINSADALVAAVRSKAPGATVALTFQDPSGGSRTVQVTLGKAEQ

[18] = target: probe-bound proteins in M. tuberculosis H37Ra cells (Mycobacterium tuberculosis, UniProt P9WJY1); details: protein Rv0037c (P9WJY1, Uncharacterized MFS-type transporter Rv0037c); 5µM vs noUV
UniProt P9WJY1, sequence (P9WJY1 whole entry): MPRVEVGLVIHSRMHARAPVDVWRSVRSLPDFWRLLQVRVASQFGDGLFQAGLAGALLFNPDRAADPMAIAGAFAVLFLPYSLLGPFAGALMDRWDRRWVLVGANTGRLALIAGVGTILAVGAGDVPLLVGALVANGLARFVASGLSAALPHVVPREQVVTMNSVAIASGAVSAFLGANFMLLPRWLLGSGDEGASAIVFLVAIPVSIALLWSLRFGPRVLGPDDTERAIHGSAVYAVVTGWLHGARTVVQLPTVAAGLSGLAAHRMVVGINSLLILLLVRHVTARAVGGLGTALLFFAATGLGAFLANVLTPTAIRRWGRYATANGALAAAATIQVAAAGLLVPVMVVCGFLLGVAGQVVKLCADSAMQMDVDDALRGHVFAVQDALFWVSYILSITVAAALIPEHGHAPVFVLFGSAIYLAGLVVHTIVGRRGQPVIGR

[19] = target: probe-bound proteins in M. tuberculosis H37Ra cells (Mycobacterium tuberculosis, UniProt P9WJX5); details: protein Rv0849 (P9WJX5, Uncharacterized MFS-type transporter Rv0849); 5µM vs noUV
[20] = target: probe-bound proteins in M. tuberculosis H37Ra cells (Mycobacterium tuberculosis, UniProt P9WL87); details: protein Rv2574 (P9WL87, Uncharacterized protein Rv2574); 5µM vs noUV
UniProt P9WL87, sequence (P9WL87 whole entry): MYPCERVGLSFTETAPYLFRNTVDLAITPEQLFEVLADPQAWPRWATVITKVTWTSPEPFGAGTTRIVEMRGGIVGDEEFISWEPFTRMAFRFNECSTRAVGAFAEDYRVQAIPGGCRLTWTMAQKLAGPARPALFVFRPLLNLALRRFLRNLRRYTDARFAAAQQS

[21] = target: probe-bound proteins in M. tuberculosis H37Ra cells (Mycobacterium tuberculosis, UniProt P9WG15); details: protein Rv2563 (P9WG15); 5µM vs noUV

SMILES: C#CC1(NC(=O)Nc2ccc(N=[N+]=[N-])cc2)CCCCC1 [Compound 227-p1]
- Student's T-test Difference DM-JB-68 -5µM_DM-JB-68 -5µM_noUV ([1]; protein Rv0077c (O53622)): 0.3224
- Student's T-test Difference DM-JB-68 -5µM_DM-JB-68 -5µM_noUV ([1]; protein Rv0133 (P96810)): -1.444
- Student's T-test Difference DM-JB-68 -5µM_DM-JB-68 -5µM_noUV ([1]; protein Rv0180c (O07424)): 0.9316
- Student's T-test Difference DM-JB-68 -5µM_DM-JB-68 -5µM_noUV ([1]; protein Rv0464c (O53749)): 0.005203
- Student's T-test Difference DM-JB-68 -5µM_DM-JB-68 -5µM_noUV ([1]; protein Rv0473 (I6Y3V3)): 0.7437
- Student's T-test Difference DM-JB-68 -5µM_DM-JB-68 -5µM_noUV ([1]; protein Rv1072 (O53420)): -0.1783
- Student's T-test Difference DM-JB-68 -5µM_DM-JB-68 -5µM_noUV ([1]; protein Rv1231c (O86314)): 0.1051
- Student's T-test Difference DM-JB-68 -5µM_DM-JB-68 -5µM_noUV ([1]; protein Rv1456c (O53148)): 0.3985
- Student's T-test Difference DM-JB-68 -5µM_DM-JB-68 -5µM_noUV ([1]; protein Rv1457c (O86349)): 0.6268
- Student's T-test Difference DM-JB-68 -5µM_DM-JB-68 -5µM_noUV ([1]; protein Rv1487 (P71767)): -0.313
- Student's T-test Difference DM-JB-68 -5µM_DM-JB-68 -5µM_noUV ([1]; protein Rv1489 (L7N692)): -0.07504
- Student's T-test Difference DM-JB-68 -5µM_DM-JB-68 -5µM_noUV ([1]; protein Rv1749c (O65935)): 0.7725
- Student's T-test Difference DM-JB-68 -5µM_DM-JB-68 -5µM_noUV ([1]; protein Rv1924c (P95289)): 0.8512
- Student's T-test Difference DM-JB-68 -5µM_DM-JB-68 -5µM_noUV ([1]; protein Rv2037c (L0TB61)): 0.6902
- Student's T-test Difference DM-JB-68 -5µM_DM-JB-68 -5µM_noUV ([1]; protein Rv3092c (I6Y2I9)): 0.2645
- Student's T-test Difference DM-JB-68 -5µM_DM-JB-68 -5µM_noUV ([1]; protein Rv3269 (P96874)): 0.7618
- Student's T-test Difference DM-JB-68 -5µM_DM-JB-68 -5µM_noUV ([1]; protein Rv3295 (P96900)): 0.9642
- Student's T-test Difference DM-JB-68 -5µM_DM-JB-68 -5µM_noUV ([1]; protein Rv3312c (O53363)): 0.03856
- Student's T-test Difference DM-JB-68 -5µM_DM-JB-68 -5µM_noUV ([1]; protein Rv3327 (O53377)): -0.9266
- Student's T-test Difference DM-JB-68 -5µM_DM-JB-68 -5µM_noUV ([1]; protein Rv3365c (Q93IG6, Conserved protein)): 0.4576
- Student's T-test Difference DM-JB-68 -5µM_DM-JB-68 -5µM_noUV ([1]; protein Rv3463 (I6X7D4)): -0.1981
- Student's T-test Difference DM-JB-68 -5µM_DM-JB-68 -5µM_noUV ([1]; protein Rv3519 (O53564)): -0.5336
- Student's T-test Difference DM-JB-68 -5µM_DM-JB-68 -5µM_noUV ([1]; protein Rv3587c (O53572)): 0.8256
- Student's T-test Difference DM-JB-68 -5µM_DM-JB-68 -5µM_noUV ([1]; protein Rv3629c (O06378)): 0.1476
- Student's T-test Difference DM-JB-68 -5µM_DM-JB-68 -5µM_noUV ([1]; protein Rv3669 (O69637)): 0.8695
- Student's T-test Difference DM-JB-68 -5µM_DM-JB-68 -5µM_noUV ([1]; protein Rv3689 (I6YCR8)): 0.08224
- Student's T-test Difference DM-JB-68 -5µM_DM-JB-68 -5µM_noUV ([1]; protein Rv3779 (P72045)): 0.07224
- Student's T-test Difference DM-JB-68 -5µM_DM-JB-68 -5µM_noUV ([1]; protein chaA (O53910)): -0.6885
- Student's T-test Difference DM-JB-68 -5µM_DM-JB-68 -5µM_noUV ([1]; protein echA21 (P75019)): 0.5863
- Student's T-test Difference DM-JB-68 -5µM_DM-JB-68 -5µM_noUV [2]: -0.278
- Student's T-test Difference DM-JB-68 -5µM_DM-JB-68 -5µM_noUV [3]: 0.4201
- Student's T-test Difference DM-JB-68 -5µM_DM-JB-68 -5µM_noUV [4]: 0.9543
- Student's T-test Difference DM-JB-68 -5µM_DM-JB-68 -5µM_noUV [5]: 0.7916
- Student's T-test Difference DM-JB-68 -5µM_DM-JB-68 -5µM_noUV [6]: 0.3732
- Student's T-test Difference DM-JB-68 -5µM_DM-JB-68 -5µM_noUV [7]: -0.2309
- Student's T-test Difference DM-JB-68 -5µM_DM-JB-68 -5µM_noUV [8]: 0.2296
- Student's T-test Difference DM-JB-68 -5µM_DM-JB-68 -5µM_noUV [9]: 0.7121
- Student's T-test Difference DM-JB-68 -5µM_DM-JB-68 -5µM_noUV [10]: 0.06894
- Student's T-test Difference DM-JB-68 -5µM_DM-JB-68 -5µM_noUV [11]: 0.6026
- Student's T-test Difference DM-JB-68 -5µM_DM-JB-68 -5µM_noUV [12]: 0.6362
- Student's T-test Difference DM-JB-68 -5µM_DM-JB-68 -5µM_noUV [13]: -0.4232
- Student's T-test Difference DM-JB-68 -5µM_DM-JB-68 -5µM_noUV [14]: 0.3154
- Student's T-test Difference DM-JB-68 -5µM_DM-JB-68 -5µM_noUV [15]: 0.6741
- Student's T-test Difference DM-JB-68 -5µM_DM-JB-68 -5µM_noUV [16]: -1.275
- Student's T-test Difference DM-JB-68 -5µM_DM-JB-68 -5µM_noUV [17]: 0.4742
- Student's T-test Difference DM-JB-68 -5µM_DM-JB-68 -5µM_noUV [18]: -0.4477
- Student's T-test Difference DM-JB-68 -5µM_DM-JB-68 -5µM_noUV [19]: 0.01259
- Student's T-test Difference DM-JB-68 -5µM_DM-JB-68 -5µM_noUV [20]: 0.135
- Student's T-test Difference DM-JB-68 -5µM_DM-JB-68 -5µM_noUV [21]: 0.6088
